# Source: PubChem BioAssay AID504339 (National Center for Advancing Translational Sciences (NCATS), 2011)
# Where “and” joins values, the source holds several entries; their conditions need not be identical. Equal values may be shown once. Screen size: about 390,000 compounds; about 17,000 (4.4%) were called active. Inconclusive results, whose numbers are uncertain, are shown with a selection of clear calls. Calls come from the whole dose curve; as a rule, active = well fitted inhibition curve with a large enough effect; inconclusive = small, poorly fitted or top-dose-only effect; inactive = no such curve, though single readings can be large or run the other way. A potency beside an inconclusive call is a rough fit, not a confirmed value.
# Target: Lysine-specific demethylase 4A (Homo sapiens) (UniProt O75164)
# Experiment: qHTS Assay for Inhibitors of JMJD2A-Tudor Domain; note: nearly all actives have a fitted effect of over 50% in size
# Settings: AlphaScreen JMJD2A-Tudor / H3K4me3 peptide binding; activity change, negative = inhibition: at 114 µM (top of the series)
# % is set by controls: 0 for no effect and ±100 for the full control effect; potency is the fitted concentration of half-maximal effect; tags give direction and shape of the fitted curve.
# Chain of UniProt O75164 (O75164 whole entry, looked up, the tested form may be a part): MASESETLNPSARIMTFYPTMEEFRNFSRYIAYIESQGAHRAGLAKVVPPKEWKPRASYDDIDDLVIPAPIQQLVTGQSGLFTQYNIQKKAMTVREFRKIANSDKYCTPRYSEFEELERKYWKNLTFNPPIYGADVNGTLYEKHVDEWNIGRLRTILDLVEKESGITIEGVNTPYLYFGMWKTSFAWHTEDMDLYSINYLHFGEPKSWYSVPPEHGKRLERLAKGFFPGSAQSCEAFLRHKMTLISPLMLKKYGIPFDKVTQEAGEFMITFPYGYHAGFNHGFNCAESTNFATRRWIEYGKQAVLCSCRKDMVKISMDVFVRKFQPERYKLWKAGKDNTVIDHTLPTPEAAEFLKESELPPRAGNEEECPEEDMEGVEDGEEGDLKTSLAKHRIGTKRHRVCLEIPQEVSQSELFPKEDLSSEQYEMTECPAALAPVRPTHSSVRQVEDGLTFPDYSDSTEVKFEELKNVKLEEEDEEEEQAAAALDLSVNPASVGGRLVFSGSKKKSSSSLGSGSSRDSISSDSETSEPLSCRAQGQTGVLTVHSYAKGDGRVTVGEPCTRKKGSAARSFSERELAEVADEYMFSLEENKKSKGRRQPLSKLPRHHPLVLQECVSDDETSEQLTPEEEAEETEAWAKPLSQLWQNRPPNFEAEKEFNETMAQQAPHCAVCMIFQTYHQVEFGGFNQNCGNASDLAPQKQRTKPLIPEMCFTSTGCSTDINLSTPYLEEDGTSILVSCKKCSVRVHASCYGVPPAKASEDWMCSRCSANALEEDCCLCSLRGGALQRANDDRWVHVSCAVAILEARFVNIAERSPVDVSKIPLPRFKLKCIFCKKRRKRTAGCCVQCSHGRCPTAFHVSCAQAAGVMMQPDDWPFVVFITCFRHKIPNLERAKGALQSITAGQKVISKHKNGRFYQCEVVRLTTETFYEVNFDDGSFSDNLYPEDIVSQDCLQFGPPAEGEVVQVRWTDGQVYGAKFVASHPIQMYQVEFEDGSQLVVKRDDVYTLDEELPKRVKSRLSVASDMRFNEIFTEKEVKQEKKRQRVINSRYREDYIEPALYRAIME
Compound,Potency,"activity change, negative = inhibition"
COc1ccc(NC(=O)c2cc3ccccc3cc2OC)cc1,"inconclusive: 22.4 µM [inhibitor, full curve]",–
Cc1ccc(Cl)cc1N1CCN(C(=O)c2cn(C3CCCCC3)c(=O)c3c2c2ccccc2n3C)CC1,inactive,–
CCn1c2ccccc2c2cc(C3C(C#N)=C(N)Oc4n[nH]c(COC)c43)ccc21 (stereo not given),"inconclusive: 63.1 µM [inhibitor, partial curve]",–
COCCNC(=O)c1ccccc1NC(=O)c1cccc([N+](=O)[O-])c1C,inactive,–
COCCNC(=S)N1CCc2cc(OC)c(OC)cc2C1COc1cc(C)cc(C)c1 (stereo not given),"inconclusive: 50.1 µM [inhibitor, partial curve]",–
N#CC1=C(N)Oc2c(O)cc3ccccc3c2C1c1ccsc1 (stereo not given),"inconclusive: 50.1 µM [inhibitor, partial curve]",–
Cc1ccccc1-c1nc(CS(=O)CC(=O)NCc2ccc3c(c2)OCO3)c(C)o1 (stereo not given),inactive,–
CN1CC(c2ccccc2)C2(SC(=S)N(Cc3ccco3)C2=O)C12C(=O)Nc1ccccc12 (stereo not given),"inconclusive: 28.2 µM [inhibitor, full curve]",–
c1csc(CNc2ncnc3ccc(-c4ccc5c(c4)OCO5)cc23)c1,"inconclusive: 79.4 µM [inhibitor, single point]",–
COc1ccc(/C=N/n2c(-c3cccs3)n[nH]c2=S)cc1,active: 44.7 µM,–
CNC(=S)N(C1=NCC(c2ccc([N+](=O)[O-])cc2)S1)c1ccccc1 (stereo not given),"inconclusive: 22.4 µM [inhibitor, partial curve]",–
COc1ccc(CNC(=O)CCNC(=O)N2CCn3c2nc2ccccc23)cc1,active: 39.8 µM,–
Cc1nnc(N/N=C/c2cccc(OCc3ccc(Cl)c(Cl)c3)c2)n1N,"inconclusive: 50.1 µM [inhibitor, partial curve]",–
CCOc1ccc(-n2c(C)cc(C(=O)CCl)c2C)cc1,"inconclusive: 63.1 µM [inhibitor, partial curve, poor fit]",–
Cc1ccc(-n2c(O)c(/C=N/n3cnnc3)c3ccccc3c2=O)cc1,active: 44.7 µM and active: 56.2 µM,–
COc1ccc(N=C2S/C(=C\c3ccc(OC(C)C(=O)O)c(OC)c3)C(=O)N2CCc2c[nH]c3ccccc23)cc1 (stereo not given),active: 39.8 µM,–
COC(=O)C1CCN(S(=O)(=O)c2cc3c4c(c2)C(C)C(=O)N4CCC3)CC1 (stereo not given),inactive,–
O=[N+]([O-])c1ccccc1OCCCn1cnc2ccccc21,active: 0.794 µM,–
CN(c1cccc(NC(=O)CN(c2ccc(C34CC5CC(CC(C5)C3)C4)cc2)S(C)(=O)=O)c1)S(C)(=O)=O,"inconclusive: 20 µM [inhibitor, full curve, poor fit]",–
COc1ccc(C2CC(C)=C(C#N)S(=O)(=O)C2C#N)cc1 (stereo not given),inactive,–
CC(=O)NC1C(=O)N(CCc2ccccc2)c2ccc(Br)cc21 (stereo not given),inactive,–
COc1cc(C(=O)NNC(=S)NC(=O)c2ccccc2C)cc(OC)c1OC,inactive,–
Nc1nc2nc[nH]c2c(=O)[nH]1,inactive,–
Cc1ccc2c(c1)[nH]c1c(N3CCN(Cc4ccccc4)CC3)ncnc12,"inconclusive: 56.2 µM [inhibitor, partial curve]",–

Compound,Potency,"activity change, negative = inhibition"
CN(C)c1ccc(/C=C/c2ccc3c4ccccc4ccc3[n+]2-c2ccccc2)cc1,active: 15.8 µM and active: 8.91 µM,–
OC(CNCCc1ccc(C(F)(F)F)cc1)COC(c1ccccc1)c1ccccc1 (stereo not given),active: 12.6 µM,–
Cc1cc2c(cc1S(=O)(=O)NCc1ccc(N(C)C)cc1)OCC(=O)N2,"inconclusive: 50.1 µM [inhibitor, partial curve]",–
CC(Oc1ccccc1)C(=O)Nc1nc2ccc(S(N)(=O)=O)cc2s1 (stereo not given),inactive,–
Cc1csc(SCC(=O)Nc2ncc(Cl)c(C)c2Cl)n1,"inconclusive: 89.1 µM [inhibitor, single point]",–
CC(C)(C)c1ccc(C(=O)NC(=S)N2CCOCC2)cc1,inactive,–
Cc1ccc(CN2CCC(CNc3ncnc4onc(-c5ccc(Cl)cc5)c34)CC2)cc1,inactive,–
Cc1ccc(OCc2nc3ccccc3n2CC(C)C)cc1,inactive,–
COc1ccc(-c2csc(NC(C)c3nc4cc(C(F)(F)F)ccc4n3CCOCCO)n2)cc1 (stereo not given),"inconclusive: 56.2 µM [inhibitor, partial curve]",–
COc1ccc(C(=O)C2CCCN(C(=O)c3csc(C(C)=O)c3)C2)c(C)c1 (stereo not given),"inconclusive: 22.4 µM [inhibitor, full curve, poor fit]",–
O=C(NNC(=S)NC(=O)c1cn(-c2ccccc2)nc1-c1ccccc1)c1ccncc1,"inconclusive: 70.8 µM [inhibitor, single point]",–
O=C(COC(=O)c1ccc(Cl)c(S(=O)(=O)NCc2ccccc2)c1)NCC1CCCO1 (stereo not given),"inconclusive: 89.1 µM [inhibitor, single point]",–
Cc1cc(C(=O)CSc2nc(N)cc(N)n2)c(C)n1CCc1ccc(F)cc1,"inconclusive: 50.1 µM [inhibitor, partial curve]",–
COn1c(SC2CCCCC2)nc2ccccc2c1=O,inactive,–
O=C(C1COc2ccccc2O1)N1CCN(c2ccc([N+](=O)[O-])cc2)CC1 (stereo not given),"inconclusive: 35.5 µM [inhibitor, partial curve]",–
O=C(NCc1ccccn1)c1ccc(Cn2cc(Br)cn2)o1,"inconclusive: 100 µM [inhibitor, single point]",–
CCOC(=O)/C=C1\CC(C(=O)OCC)Oc2c(OC)cccc21 (stereo not given),"inconclusive: 39.8 µM [inhibitor, single point]",–
COc1ccccc1NC(=O)Nc1ccc(N2CCOCC2)cc1,"inconclusive: 89.1 µM [inhibitor, partial curve]",–
CCCc1nnc(NC(=O)CCC(=O)N2CCN(CCn3c(C)ccc3C)CC2)s1,inactive,–
COc1ccc(-c2[nH]ncc2CN2CCC(N3CCSCC3)CC2)c(F)c1,"inconclusive: 44.7 µM [inhibitor, partial curve]",–
COc1ccccc1C1c2ccc3ccccc3c2Oc2ncn(CCN(C)C)c(=N)c21 (stereo not given),"inconclusive: 10 µM [inhibitor, single point]",–
Cc1ccc(C)c(N2C(=O)c3cc(N4CCOCC4)c([N+](=O)[O-])cc3C2=O)c1,"inconclusive: 25.1 µM [inhibitor, partial curve]",–
COc1ccc(S(=O)(=O)Nc2cccc3cccnc23)c(N)c1,"inconclusive: 56.2 µM [inhibitor, partial curve]",–
O=C(O)c1ccc2c(c1)C(=O)/C(=C/c1ccccc1)C2=O,"inconclusive: 44.7 µM [inhibitor, single point]",–

Compound,Potency,"activity change, negative = inhibition"
CCC(Oc1ccccc1)C(=O)Nc1ccccc1OCc1cc(=O)n2ccccc2n1 (stereo not given),inactive,–
CC[C@]12c3[nH]c4cc(-c5ccco5)ccc4c3CCN1C(=O)[C@@H](CC(=O)NCCCOC)C[C@@H]2C(=O)N1CCN(C(=O)c2ccco2)CC1,"inconclusive: 50.1 µM [inhibitor, partial curve]",–
Cc1ccc2nc(-c3ccccn3)c(Nc3ccc(F)cc3)n2c1,"inconclusive: 10 µM [inhibitor, full curve]",–
Cc1cc(C(=O)N2CC=C(c3ccccc3)CC2)c2ccccc2n1,"inconclusive: 3.55 µM [inhibitor, single point]",–
Cc1cccc(-c2n[nH]c(=S)n2/N=C/C=C/c2ccco2)c1,active: 20 µM,–
COC(=O)c1sccc1NC(=O)CN1CCN(c2ccc(F)cc2)CC1,"inconclusive: 79.4 µM [inhibitor, partial curve]",–
Cc1cc(/C=C2\C(=N)N3N=C(S(C)(=O)=O)SC3=NC2=O)c(C)n1Cc1ccccc1,"inconclusive: 56.2 µM [inhibitor, partial curve, poor fit]",–
O=C(Nc1ccccc1N1CCCCC1)c1cccc([N+](=O)[O-])c1,–,inconclusive: -44.2% [inhibitor]
O=C(CCN1CCN(c2ccc([N+](=O)[O-])cc2)CC1)c1ccc(Cl)cc1,"inconclusive: 39.8 µM [inhibitor, partial curve]",–
OC(CN1CCCCC1)c1ccc(Br)cc1 (stereo not given),inactive,–
O=C(CCc1ccccc1Cl)Nc1cc2c(cc1C(=O)O)OCCCO2,"inconclusive: 89.1 µM [inhibitor, partial curve]",–
Cc1cc(C)c(OCCN2CCOCC2)c(Cl)c1,active: 28.2 µM,–
CN(C(=O)CSc1cn(CC(=O)N2CCCCC2)c2ccccc12)c1ccccc1,inactive,–
CC(NC(=O)c1ccc(S(=O)(=O)N(C)C)cc1)c1ccccc1 (stereo not given),active: 79.4 µM,–
Cc1cc(C)cc(NC(=O)CCCN2C(=O)C(c3ccccc3)Oc3cccnc32)c1 (stereo not given),"inconclusive: 15.8 µM [inhibitor, full curve]",–
Cc1cc2nc3ccc(=[N+](C)C)cc-3sc2cc1N,"inconclusive: 35.5 µM [inhibitor, full curve]",–
COC(=O)c1cc(NC(=O)c2cc(-c3ccc(Cl)cc3)oc2C(F)(F)F)ccc1N1CCOCC1,inactive,–
O=C(NCC1CCCO1)C1CCCN(S(=O)(=O)c2ccc(Br)cc2)C1 (stereo not given),"inconclusive: 100 µM [inhibitor, single point]",–
CC1=CC(C)(C)n2c(O)c(N=N)c3cc(C)cc1c32,active: 50.1 µM,–
Cc1cccc(OCCNC(=O)c2ccc(Oc3ccc(C(F)(F)F)cc3[N+](=O)[O-])cc2)c1,"inconclusive: 0.708 µM [inhibitor, full curve, poor fit]",–
O=C(NCCc1ccccc1)C(=O)NN=C1CCCC1,"inconclusive: 22.4 µM [inhibitor, single point]",–
COc1ccc(CCNC(=O)CN2C(=O)CSc3ccc(S(=O)(=O)N4CCOCC4)cc32)cc1OC,"inconclusive: 79.4 µM [inhibitor, single point]",–
